Laboratory results from PubChem BioAssay AID1508642 (National Center for Advancing Translational Sciences (NCATS), 2021).
The whole screen tested about 43,000 compounds, of which about 200 (0.47%) were called active. Not shown: some 12% with an inconclusive outcome. Calls come from the whole dose curve; as a rule, active = well fitted cell-killing curve with a large enough effect; inconclusive = small, poorly fitted or top-dose-only effect, or effect the other way; inactive = flat fitted curve, though single readings scatter. The list shows a part of the results.

Assay: Cell viability qHTS assay in S16 Pmp22-F2sN cells; note: nearly all actives have a fitted effect of over 65% in size
Details: S16 Pmp22-F2sN Schwann cells viability, CellTiter-Glo, 24 h; series mostly up to 57.5 µM; activity change, negative = cytotoxicity: at the top concentration
Procedure, shortened: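 Used to flag compounds lowering reporter output through toxicity, this quantitative HTS measures ATP-based CellTiter-Glo luminescence in S16 Pmp22-F2sN Schwann cells after 24 h compound exposure at 37C.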
% is set by controls: 0 for no effect and ±100 for the full control effect.

Row | SMILES | activity change, negative = cytotoxicity
1 | O=C(NCCc1ccc(Cl)cc1)c1ccc(CS(=O)Cc2cccc(Cl)c2)o1 (configuration not stated) | inactive: -18.6%
2 | Nc1nnc(SCC(=O)Nc2ccccc2C(F)(F)F)s1 | inactive: 10.6%
3 | COC(=O)c1n[nH]n(-c2ccccc2)c1=O | inactive: 4.41%
4 | CCOC(=O)c1cc(NC(=O)c2ccc(F)cc2)c(=O)n2c1oc1ccccc12 | inactive: 9.36%
5 | Cc1ccc(C(=O)N(Cc2ccc(N(C)C)cc2)Cc2ccco2)cc1 | inactive: -6.64%
6 | Cn1c(=O)c2cc(C(=O)N3CCN(c4ccc(Cl)cc4)CC3)sc2c2ccccc21 | inactive: 6.57%
7 | Cc1oc(-c2ccc(C(=O)Nc3cc(F)ccc3F)cc2)nc1COc1ccccc1 | inactive: -3.03%
8 | CN(c1ccc(Cl)cc1)S(=O)(=O)c1nnc(NC(=O)C2CCCCC2)s1 | inactive: 0.246%
9 | COc1cccc(NC(=O)CN(C)S(=O)(=O)c2ccc3nc(C)sc3c2)c1 | inactive: -5.71%
10 | COc1ccc(C)cc1N(C)C(=O)c1c(C)oc2ncnc(N3CCOCC3)c12 | inactive: -0.319%
11 | CCOc1ccccc1NC(=O)c1c(NC(=O)c2ccccc2C)sc2c1CCC(C)C2 (configuration not stated) | inactive: 6.23%
12 | COC(=O)c1c(C)sc(-c2c(-c3ccc4c(c3)OCCO4)[nH]c3c2c(=O)n(C)c(=O)n3C)c1O | inactive: 18.3%
13 | CCNC(=O)c1cnc2sc(N3CCCCCC3)nn2c1=O | inactive: 22.6%
14 | COc1cc(C(=O)Oc2c(Sc3ccc(C)cc3)c(C)nn2-c2ccccc2)cc(OC)c1OC | inactive: 0.765%
15 | CCOc1ccc(CNC(=O)CCC(=O)N2CC(C)Sc3ccccc32)cc1 (configuration not stated) | inactive: 6.55%
16 | CCOc1ccc(CCNC(=O)CCCn2nc(C)c3sc4ccccc4c3c2=O)cc1OCC | inactive: 4.93%
17 | O=C(CSc1nccn1-c1ccccc1)Nc1nc2ccccc2s1 | inactive: -9.94%
18 | CCn1c2ccccc2c2nnc(SCCN3CCCCC3)nc21 | inactive: -5.08%
19 | N#C/C(=C/c1cn(Cc2ccc(F)cc2)c2ccccc12)C(=O)Nc1cccc(Cl)c1 | inactive: -25.4%
20 | COc1ccccc1Nc1nn2c(=O)c3ccc(C(=O)NCCCOC(C)C)cc3nc2s1 | inactive: 0.54%
21 | COC(=O)CC1c2cc(OC)c(OC)cc2CCN1C(=O)Nc1ccc(C)cc1Cl (configuration not stated) | inactive: -20%

Row | SMILES | activity change, negative = cytotoxicity
22 | COc1cc(-c2noc(-c3ccc(NCc4cccnc4)c([N+](=O)[O-])c3)n2)cc(OC)c1OC | inactive: -7.54%
23 | Cc1ccc(NC(=O)c2cnc(SCC(=O)N3CCOCC3)n(C)c2=O)cc1 | inactive: -2.54%
24 | CCOc1ccc(OCC)c(NC(=O)Cn2ncc3c4ccccc4n(Cc4ccccc4)c3c2=O)c1 | inactive: 17.1%
25 | CCc1ccc(CNC(=O)c2cccc(-n3cnc4cccnc43)c2C)cc1 | inactive: -10%
26 | CCC1CN(C(=O)N2CCC(C(=O)NCCN(C)C)CC2)c2ccccc2O1 (configuration not stated) | inactive: 5.5%
27 | Cn1ccc2cc(S(=O)(=O)N3CCCN(C(=O)Nc4ccccc4Br)CC3)ccc21 | inactive: 5.84%
28 | CCc1ccccc1NC(=O)N1CCN(c2cc(-c3noc(C)n3)ccc2C)CC1 | inactive: -5.29%
29 | COc1cc2ccccc2cc1C(=O)Nc1cccc(-c2nc3cc(C)c(C)cc3o2)c1C | inactive: 0.394%
30 | COc1ccc2oc(=O)c(C(=O)NCCc3c(C)[nH]c4c(Cl)cccc34)cc2c1 | inactive: 1.45%
31 | O=C(Nc1cccc(Cl)c1Cl)c1ccc2c(c1)N(Cc1cccc(Cl)c1)C(=O)c1ccccc1S2(=O)=O | inactive: 6.12%
32 | Cc1nc2nc(NCc3cccc(Br)c3)[nH]n2c(=O)c1Cc1ccccc1 | inactive: -1.08%
33 | CCC(=O)N1CCc2cc(Br)cc(S(=O)(=O)N3CCCC(C(=O)Nc4ccc(OC)c(Cl)c4)C3)c21 (configuration not stated) | inactive: 4.22%
34 | Cn1nnnc1SCCNCc1ccc(F)cc1 | inactive: 4.41%
35 | CCOC(=O)c1cccc(NC(=O)C(CC(C)C)N2Cc3ccccc3C2=O)c1 (configuration not stated) | inactive: -23.8%
36 | Cc1ccc(CN(C(=O)COc2cccc([N+](=O)[O-])c2)c2ccccn2)o1 | inactive: -7.44%
37 | O=S(=O)(Nc1ccc(Cl)cc1)c1ccc(NS(=O)(=O)c2ccc3c(c2)OCCO3)cc1 | inactive: -17.5%
38 | COc1ccc(NS(=O)(=O)c2ccc3[nH]c4c(c3c2)CCCC4)cc1OC | inactive: -10.2%
39 | CCCCOc1cccc(C(=O)N(Cc2ccc(C)o2)c2ccccn2)c1 | inactive: -5.78%
40 | CCOc1ccc(CCNC(=O)c2cnc3sc(N4CCCC4)nn3c2=O)cc1 | inactive: -27.1%
41 | CN(Cc1ccccc1)C(=O)c1nc(-c2ccc(Cl)cc2)n2c1CCCCC2 | inactive: -21.1%
42 | CC1N=C2c3ccccc3N=C(SCC(=O)NCCc3ccccc3)N2C1=O (configuration not stated) | inactive: 1.98%

Row | SMILES | activity change, negative = cytotoxicity
43 | CC(=O)Nc1ccc(NC(=O)c2ccc3c(c2)N(Cc2cccc(Cl)c2)C(=O)c2ccccc2S3(=O)=O)cc1 | inactive: 9.33%
44 | CCOC(=O)C(C)Sc1ccc2nnc(CCNS(=O)(=O)c3ccccc3)n2n1 (configuration not stated) | inactive: 11%
45 | CCn1c(CN2CCCCC2)nc2cc(NC(=O)c3cc(OC)c(OC)c(OC)c3)ccc21 | inactive: -27.9%
46 | Cc1ccc(Cl)cc1N1CCN(CCCNC(=O)c2ccc3nc(N4CCCCC4)sc3c2)CC1 | inactive: 6.81%
47 | Cc1ccc(-n2nc3c(=O)n(C(C)C(=O)NCc4ccco4)nc(C)c3c2C)cc1 (configuration not stated) | inactive: -2.35%
48 | COC(=O)CC1Oc2ccc(Cl)cc2-n2cc(-c3ccccc3)nc21 (configuration not stated) | inactive: 26.1%
49 | Oc1c(C(c2ccccc2)N2CCC(O)CC2)sc2nc(-c3ccco3)nn12 (configuration not stated) | inactive: 3.44%
50 | O=C(NC1(C(F)(F)F)NC(=O)N(CCc2ccccc2)C1=O)c1ccc(Cl)cc1 (configuration not stated) | inactive: 22.7%
51 | COc1ccccc1CNS(=O)(=O)c1cnc(N)nc1 | inactive: 5.08%
52 | COc1ccc(C2c3c(n(C)c4ccccc34)C(=O)N2CC(=O)Nc2cccc(F)c2)cc1 (configuration not stated) | inactive: 0.695%
53 | COc1ccc(NC(=O)c2oc3ccc(S(=O)(=O)N4CCOCC4)cc3c2C)cc1 | inactive: -7.33%
54 | Cc1ccc(N2CC(C)Cn3c2nc2c3c(=O)n(Cc3cccc(Cl)c3)c(=O)n2C)cc1 (configuration not stated) | inactive: 2.02%
55 | CCCc1cc(=O)[nH]c2nnc(SCC)n12 | inactive: 5.81%
56 | O=c1oc2ccc3ccccc3c2cc1-c1nnc(Nc2ccc(F)cc2)s1 | inactive: 4.75%
57 | COc1cccc(CNc2cc(C)nc3nc(-c4ccc(C)cc4)nn23)c1 | inactive: 7.58%
58 | Cc1ccc2c(c1)C(c1ccccc1)N(C(=O)Cc1ccc(F)cc1)CC(=O)N2 (configuration not stated) | inactive: 0.865%
59 | CCCS(=O)(=O)NCCc1sc2nc(-c3ccc(F)cc3)nn2c1C | inactive: -14.7%
60 | Cn1c(=O)[nH]c2cc(-c3noc(-c4ccc(C#N)cc4)n3)ccc21 | inactive: 6.89%
61 | O=C(c1cccn1-c1nnc(N2CCCC2)s1)N1CCN(c2ccc(Cl)cc2)CC1 | inactive: 5.22%
62 | O=C(COc1ccc2ccccc2c1)NC1CC(=O)N(c2cccc(F)c2)C1 (configuration not stated) | inactive: 8.94%
